One assay addresses T1, RUFY3.1-GFP (human) (UniProt Q7L099).
T1 sequence: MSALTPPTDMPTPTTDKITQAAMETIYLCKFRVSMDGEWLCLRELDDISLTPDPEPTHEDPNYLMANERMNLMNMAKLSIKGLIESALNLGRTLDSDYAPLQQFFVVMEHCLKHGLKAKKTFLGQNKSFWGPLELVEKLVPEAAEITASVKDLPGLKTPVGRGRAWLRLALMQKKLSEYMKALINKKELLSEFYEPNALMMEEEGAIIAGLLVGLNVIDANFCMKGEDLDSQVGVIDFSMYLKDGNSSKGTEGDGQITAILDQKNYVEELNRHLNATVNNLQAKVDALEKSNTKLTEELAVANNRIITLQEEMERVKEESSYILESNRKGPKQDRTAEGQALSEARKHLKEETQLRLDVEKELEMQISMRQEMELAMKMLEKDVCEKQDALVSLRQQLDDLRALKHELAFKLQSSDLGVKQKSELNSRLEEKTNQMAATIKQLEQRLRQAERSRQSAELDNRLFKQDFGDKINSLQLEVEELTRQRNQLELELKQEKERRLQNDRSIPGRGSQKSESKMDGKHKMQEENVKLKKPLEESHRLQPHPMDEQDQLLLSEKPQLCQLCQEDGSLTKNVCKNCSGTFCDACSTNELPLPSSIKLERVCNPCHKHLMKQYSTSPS
Put plainly: co-IP; lysates of HEK293T cells transfected with GFP-tagged proteins, magnetic GFP-Trap 2 h at 4 °C (25 mM HEPES pH 7.4, 0.2% NP-40, 0.5 mM Mg-ATP, 50 mM potassium acetate); immunoblot for endogenous DIC and p150Glued.

Sequences of proteins named here, by UniProt entry; tags and fusion partners are left off.
UniProt Q9NVJ2: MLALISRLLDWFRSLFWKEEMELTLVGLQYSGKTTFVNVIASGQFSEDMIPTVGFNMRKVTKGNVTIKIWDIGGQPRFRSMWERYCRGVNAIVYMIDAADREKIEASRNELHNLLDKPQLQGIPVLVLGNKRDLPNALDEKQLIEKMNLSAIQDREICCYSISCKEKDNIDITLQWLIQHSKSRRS

In another assay the target is T2, RUFY4-GFP (human) (UniProt Q6ZNE9).
T2 sequence: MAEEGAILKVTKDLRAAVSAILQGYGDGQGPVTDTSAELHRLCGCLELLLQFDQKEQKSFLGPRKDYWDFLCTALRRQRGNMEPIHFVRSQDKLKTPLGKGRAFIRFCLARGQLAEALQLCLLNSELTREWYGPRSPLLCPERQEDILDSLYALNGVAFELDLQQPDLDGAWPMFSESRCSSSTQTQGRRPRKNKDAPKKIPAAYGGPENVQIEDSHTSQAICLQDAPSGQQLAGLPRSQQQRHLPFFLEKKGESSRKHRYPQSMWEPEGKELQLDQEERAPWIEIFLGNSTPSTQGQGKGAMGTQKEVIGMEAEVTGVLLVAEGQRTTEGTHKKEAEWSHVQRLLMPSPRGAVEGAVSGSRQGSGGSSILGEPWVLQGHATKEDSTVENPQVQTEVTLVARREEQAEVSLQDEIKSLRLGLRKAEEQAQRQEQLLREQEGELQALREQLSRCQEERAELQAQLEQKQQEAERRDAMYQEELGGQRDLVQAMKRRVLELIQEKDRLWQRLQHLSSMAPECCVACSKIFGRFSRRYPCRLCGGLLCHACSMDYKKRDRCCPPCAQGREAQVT
Described as above.

Assay [1] deals with T3, 6His-StrepII-sfGFP-RUFY3 (human) (UniProt Q7L099).
T3 sequence: T1 sequence
Put plainly: pull-down; 40 ug purified 6His-StrepII-sfGFP proteins mixed with cleared HEK293T lysate and Strep-Tactin Sepharose overnight at 4 °C (25 mM HEPES pH 7.4, 0.2% NP40, 1 mM Mg-ATP, 50 mM potassium acetate); immunoblot for endogenous DIC and p150Glued; only the target purified.

The target of the next assay is T4, RUFY4-FLAG (human) (UniProt Q6ZNE9).
T4 sequence: T2 sequence
Nature of the assay: co-IP; lysates of HEK293T cells transfected with FLAG-tagged proteins, anti-FLAG magnetic agarose overnight at 4 °C (25 mM Tris-HCl pH 7.4, 0.15 M NaCl, 1 mM EDTA, 1% NP-40, 5% glycerol); immunoblot for endogenous ARL8A and ARL8B.

Results are given in words; binding and its absence hold for the method and conditions named. Binding seen in cells or lysates may run through a third protein. Some binding calls cover weakened binding; strength is not graded here. Where a sequence is shown, tags or fusion partners need not be part of it.

In the case of “p150^Glued subunit of dynactin, endogenous (from UniProt Q14203-1 1-1278)”, the binding entry (with RUFY3.1-GFP (human); with RUFY4-GFP (human); in assay [1]) was “binds” in each case.
For “ARL8B, endogenous (from UniProt Q9NVJ2 1-186)”, the binding result in the assay with RUFY4-FLAG (human) is given as “binds”.
